In all, about 33,000 sequences were measured (“E-score (-0.5 to 0.5)”: median about -0.054, highest 2% from about 0.39 on). This is one part of the list.
These sequences were tested against Ylr278c (UniProt Q05854) (assay: PBM E-score (8-mer binding enrichment) (E-score (-0.5 to 0.5)); higher = stronger / more preferred TF binding; most listed sequences are background and not binding sites). Conditions: protein concentration: 200 nM; construct: GST-DNA-binding domain.
Outline: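 For each ungapped eight-base word taken together with its reverse complement, the Universal PBM Analysis Suite assigned an E-score. Binding data came from GST-tagged yeast transcription factors, applied at about 100-200 nM, on universal all-10-mer Agilent arrays made double-stranded by primer extension. Fluorescent anti-GST marked bound protein, and scans were normalised with masliner.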

| Sequence | PBM E-score |
| --- | --- |
| ACAAGACC | -0.0484 |
| AAGTAGAA | -0.0972 |
| ACCAGGAG | -0.0703 |
| CGAAATAG | 0.0414 |
| CTCGAAGC | -0.108 |
| TCTGCGCA | -0.0591 |
| CTCATAAG | -0.079 |
| AGAGGTAC | -0.19 |
| GGAACGAC | -0.0666 |
| GACGAAGC | -0.00284 |
| CATCCCCC | -0.0212 |
| CGTCCGAC | 0.243 |
| ATATAGTA | -0.0693 |
| GCCGCGAA | 0.233 |
| CTAATAGA | -0.0917 |
| CTTCCATC | -0.0372 |
| GATCTTGC | 0.151 |
| CGACCAGA | -0.0929 |
| ATCAGTTG | -0.277 |
| ATCGCACG | -0.197 |
| GAGCGATC | 0.148 |
| TCGGCAAA | 0.233 |
| AAGCGCGA | 0.0564 |
| GACATAGC | -0.0226 |
| ATCGGGGC | 0.296 |

| Sequence | PBM E-score |
| --- | --- |
| ACCAAGGA | -0.0602 |
| AATAGACT | -0.178 |
| ACTCTCCC | 0.14 |
| ATAACCCC | 0.2 |
| CAGTACTA | -0.253 |
| CCGTGTAC | 0.121 |
| AGACGGGG | 0.209 |
| CTGAATAA | -0.137 |
| TAATTATA | 0.112 |
| GGCGAAGA | 0.136 |
| CGCACTAC | 0.104 |
| CCAGCTTC | -0.0973 |
| CCCCTACG | -0.176 |
| CACGGTAG | -0.139 |
| ACCACTTG | -0.0509 |
| CAAGGATA | -0.11 |
| GTCGTTAA | -0.0218 |
| CCCAAAAC | -0.216 |
| AGCCCCTC | -0.142 |
| CATTATGA | -0.189 |
| CACTAGTG | -0.0271 |
| GACGGATA | 0.249 |
| ATCGCTTA | -0.276 |
| CGGGGGAG | 0.158 |
| TGCACTAA | -0.0823 |

| Sequence | PBM E-score |
| --- | --- |
| AGCACATC | 0.0993 |
| AGATTCGG | 0.288 |
| GAGTATGA | 0.24 |
| ACTATTGA | -0.15 |
| TCCGATAA | 0.428 |
| AGTGGATA | -0.00948 |
| CTGGCTAC | -0.258 |
| CGGGCTGC | 0.118 |
| GATTTATA | 0.0736 |
| AACCCTGC | -0.198 |
| ACAATCCT | -0.0827 |
| CACATATG | -0.38 |
| ATGTGTCA | -0.205 |
| CGTAGCTA | -0.243 |
| AATAATCC | 0.149 |
| GTACCTAA | -0.288 |
| ACCCGCCC | 0.292 |
| AACTCTGG | -0.179 |
| ATTGCTGG | -0.141 |
| ACGTCTTG | -0.182 |
| TATCCACA | -0.144 |
| CTATGGAC | 0.0134 |
| AGTTTCCA | -0.0248 |
| GTTCCTCA | -0.0284 |
| AGCAATAG | -0.0696 |

| Sequence | PBM E-score |
| --- | --- |
| AACATACA | -0.105 |
| CGGCTTAA | 0.333 |
| ACCGTGCG | 0.00414 |
| GTAGGCAA | -0.233 |
| AGAGGCTA | -0.164 |
| ACGTCGTG | -0.0983 |
| CCCCACAG | -0.305 |
| GATCTACC | -0.0521 |
| CTTAGAAG | -0.185 |
| AACGACTT | -0.203 |
| AGCGTATG | -0.0606 |
| GACTCCTA | -0.191 |
| AGCATCGC | -0.0596 |
| AAACGTTG | -0.188 |
| CCCGGGTA | 0.289 |
| CATTCTAC | -0.0539 |
| CAGTCATG | -0.129 |
| CAATACTA | -0.165 |
| GGGTAGGA | 0.036 |
| CTAAAGGA | -0.0918 |
| CCGAACGG | 0.313 |
| CTCCACAA | -0.0554 |
| GCCCAAAA | -0.0732 |
| ATTTTTTG | 0.0266 |
| AGTGGCAA | -0.0899 |

| Sequence | PBM E-score |
| --- | --- |
| ATAAGTCG | 0.0379 |
| AACCCTCC | 0.0776 |
| AACGTTGG | -0.187 |
| AGGAGACT | -0.176 |
| CACGCTCA | -0.00011 |
| CGTGCGCC | 0.143 |
| ATGTGCGA | -0.0711 |
| GCGGATAC | 0.237 |
| ATTGGTCC | 0.122 |
| CACCAAGA | -0.125 |
| ATGGCGGA | 0.319 |
| GAAATTTC | 0.0871 |
| AGGACCGC | 0.227 |
| GAGTACTA | -0.0512 |
| AGCTATAG | -0.301 |
| CGACTACA | -0.144 |
| GGGGGTAC | 0.0141 |
| AGCAAAGA | -0.138 |
| CAGCTCGC | -0.157 |
| AGTTGAAT | -0.0111 |
| AAAGAGCT | -0.155 |
| TCCACCAA | -0.0779 |
| AATTTCTC | 0.121 |
| ATGGACTG | -0.179 |
| CTGAAAGC | 0.112 |

| Sequence | PBM E-score |
| --- | --- |
| GCAAGCGA | -0.0851 |
| CGACAACC | -0.0858 |
| AAGGGATA | -0.183 |
| AACCAAGA | -0.119 |
| ACAGTGCG | 0.0189 |
| GAGCGATA | -0.0698 |
| ACTCCTCG | 0.0271 |
| GCGCACAA | 0.0955 |
| AAGAATAT | -0.118 |
| CTAGTTGC | -0.0925 |
| AGTCGTTA | -0.168 |
| ACGGTGTA | 0.0979 |
| CGTCCCCC | -0.033 |
| ATAATCGG | 0.289 |
| CCTTGTTA | -0.225 |
| ATACCATC | 0.0633 |
| ATCTGATG | -0.138 |
| GCGGAAAC | 0.271 |
| GTATCTAA | -0.0817 |
| AGGCAGTA | -0.361 |
| TAACGAAA | -0.0536 |
| GAACATAC | 0.0414 |
| ACAAAAAC | 0.117 |
| GGCAACAC | 0.0328 |
| TCCGTACA | 0.263 |

| Sequence | PBM E-score |
| --- | --- |
| GACTACAA | -0.177 |
| ACGAGCGA | -0.195 |
| ATCTCGAC | -0.0424 |
| CGCAGATA | -0.121 |
| GAATGGCA | 0.0716 |
| CAGGAGGA | -0.219 |
| GTCGAATA | -0.0877 |
| CATAATGG | -0.167 |
| AGACGGAG | 0.392 |
| ATACGCTA | -0.0321 |
| GATATGAA | -0.0301 |
| CACAGCGA | -0.0374 |
| CCGTTACC | 0.133 |
| ATCTTAGA | -0.0134 |
| ATTATGTA | 0.0306 |
| CACTAATG | -0.0878 |
| ACCAGTCT | -0.193 |
| GTGACGCA | -0.128 |
| AAGTATAC | -0.146 |
| ACGTCTGG | -0.23 |
| ACTCCCCC | 0.0358 |
| ACTTGAAC | -0.0067 |

Source: the supplement of paper PMC3334620
